The campaign covered roughly 310,000 compounds. About 18,000 (5.8%) were called active. The shares of active, inactive and inconclusive entries below differ from those in the screen. Calls come from the whole dose curve; as a rule, active = well fitted inhibition curve with a large enough effect; inconclusive = small, poorly fitted or top-dose-only effect, or another doubt; inactive = no such curve, though single readings can be large or run the other way. Potencies of inconclusive entries are left out as doubtful fits.
Assay: Primary qHTS for delayed death inhibitors of the malarial parasite plastid, 48 hour incubation
Conditions: P. falciparum luciferase growth in erythrocytes; series mostly up to 28.7 µM; activity change, negative = inhibition: at the top concentration
Method in brief: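 First compound was added to culture medium, then infected red cells at 0.1% parasitemia and 2% hematocrit (final). After incubation at 37 C under 5% CO2, luciferase detection reagent was dispensed and light output recorded.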
% is set by controls: 0 for no effect and ±100 for the full control effect; potency is the fitted concentration of half-maximal effect; tags give direction and shape of the fitted curve.

SMILES	Potency	activity change, negative = inhibition
COc1cccc(C(=O)Nc2ccc(-c3nc4ccccc4o3)c(O)c2)c1	inconclusive [inhibitor, single point]	
COc1cccc(-c2nc(NC(C)C)c3ccccc3n2)c1O	inconclusive [inhibitor, single point]	
Clc1cccc(Cl)c1-c1noc(CN2CCOCC2)n1	active: 10.4 µM	
CCCCCCCC1CC(CSC(=N)N)OC1=O (stereo unspecified)	inconclusive [inhibitor, single point]	
O=S(=O)(c1cccc(-c2csc(-c3cccnc3)n2)c1)N1CCCCC1	active: 9.28 µM	
COc1ccc(C(C(=O)NC2CCCCC2)N(C(=O)CCCC(=O)Nc2ccccn2)c2ccc3c(c2)OCCO3)cc1 (stereo unspecified)	inconclusive [inhibitor, single point]	
O=[N+]([O-])c1ccc(C(O)CN2CCN(C/C=C/c3ccccc3)CC2)cc1 (stereo unspecified)	active: 7.38 µM	
N#CCC(=O)N/N=C/c1cc(-c2ccccc2)n(-c2ccc(Cl)cc2)c1-c1ccccc1	inconclusive [inhibitor, partial curve, poor fit]	
Cc1cc(C)n(CCC(=O)N2CCc3ccccc32)n1		inactive: 14.2%
CCc1ccc(CNC(=O)CN2C(=O)COc3ccccc32)cc1		inactive: 23.4%
O=C(Nc1nc2ccc(S(=O)(=O)N3CCCC3)cc2s1)C1CCCO1 (stereo unspecified)	inconclusive [inhibitor, partial curve, poor fit]	
CC(C)NC(=O)c1cnc(N2CCN(c3ccccn3)CC2)c2ccccc12	inconclusive [inhibitor, partial curve]	
COc1cccc(C2C(C#N)=C(N)Oc3cc(C)n(Cc4ccco4)c(=O)c32)c1 (stereo unspecified)		inactive: 4.37%
O=C(Nc1sc2c(c1C(=O)O)CCCC2)c1ccc(F)cc1		inactive: 40.1%
CCCCC1=CC2=C(c3ccco3)C(=O)C(C)(OC(=O)c3ccc(OC)cc3)C(=O)C2=CN1Cc1ccc(OC)cc1 (stereo unspecified)	inconclusive [inhibitor, single point]	
COc1ccc(NC(=O)CN(C)C(=O)c2oc3ccccc3c2C)cc1	inconclusive [inhibitor, partial curve, poor fit]	
O=C(NCc1ccco1)NC12CC3CC(CC(C3)C1)C2	inconclusive [inhibitor, single point]	
N#CCc1nn(Cc2ccc(F)cc2)c(=O)c2ccccc12		inactive: 7.53%
c1ccc(C2CNCc3c2ccc2ccccc32)cc1 (stereo unspecified)	active: 10.4 µM	
COc1cc(OC)c(OC)cc1/C=N/Nc1ccc(Cl)nn1		inactive: -11.5%
NC(=O)C1CCN(c2nc(-c3cccc([N+](=O)[O-])c3)cs2)CC1	inconclusive [inhibitor, single point]	
CC(C)CCN(C(=S)Nc1cccc(F)c1)C1CCN(C(C)C)CC1	inconclusive [inhibitor, single point]	
CSCCC(NC(=O)COc1ccccc1)C(=O)N(C)Cc1ccc(Cl)cc1Cl (stereo unspecified)	inconclusive [inhibitor, partial curve, poor fit]	

SMILES	Potency	activity change, negative = inhibition
CC(=O)NC(CC(=O)NCCN1C(=O)S/C(=C\c2ccccc2)C1=O)c1ccccc1 (stereo unspecified)	inconclusive [inhibitor, full curve]	
Cc1ccc(C)c(C(=O)CSc2n[nH]c(C(C)C)n2)c1		inactive: 34.6%
O=C(N/N=C/c1cc(Br)ccc1O)C(c1ccncc1)N1CCOCC1 (stereo unspecified)	inconclusive [inhibitor, single point]	
O=C(NCC(c1ccco1)N1CCc2ccccc21)c1cccc(F)c1 (stereo unspecified)	inconclusive [inhibitor, single point]	
CCCSc1nc(C)cc(C)c1S(C)(=O)=O	inconclusive [inhibitor]	
CCOC(=O)C(=CNc1cccnc1Oc1ccc(C)c2c1CCC2)C(=O)OCC	active: 11.7 µM	
COCCN(C(=O)CCl)C(C(=O)NC1CCCCC1)c1ccccc1C (stereo unspecified)	active: 10.4 µM	
O=C(COc1cccc2cccnc12)Nc1ccccc1		inactive: 118%
C=CCn1c(C)cc(C(=O)CSc2ccc(NC(C)=O)cc2)c1C		inactive: 47.5%
COCC(C)N1CCC(Oc2ccc(C(=O)N3CCCC3)cc2)CC1 (stereo unspecified)		inactive: -11.3%
CCOc1ccc(OCC)c(NC(=O)C(NS(=O)(=O)c2ccc3c(c2)oc(=O)n3C)C(C)C)c1 (stereo unspecified)	inconclusive [inhibitor, full curve, poor fit]	
COc1ccc(OCCCC(=O)OC(C)C(=O)Nc2ccc(S(N)(=O)=O)cc2)cc1 (stereo unspecified)		inactive: -17.5%
O=C(CCl)Nc1cc2[nH]c(=O)[nH]c2cc1Br	active: 2.33 µM	
O=C(CCc1nc2ccccc2c(=O)[nH]1)N1CCN(S(=O)(=O)c2cccc(F)c2)CC1	inconclusive [inhibitor, single point]	
NC1=NC2(CCCC2)N=C(Nc2ccccc2)N1	inconclusive [inhibitor, full curve, poor fit]	
Cc1nc(NN)nc(NCc2ccccc2)n1	inconclusive [inhibitor, full curve, poor fit]	
Cc1ccc(Nc2nc3c(c(=O)[nH]c(=O)n3C)n2Cc2ccc(F)cc2)cc1	inconclusive [inhibitor, full curve, poor fit]	
Cc1ccc(S(=O)(=O)N2CCC(=O)N(C(COCc3ccc(C(F)(F)F)cc3)Cc3ccccc3)CC2)cc1 (stereo unspecified)	inconclusive [inhibitor, single point]	
CCNC(=S)N1CCCCC1CO (stereo unspecified)		inactive: 36.8%
CCOC(=O)c1oc2ccccc2c1COC(=O)CNC(=O)c1cccc(C)c1		inactive: 2.09%
COc1ccccc1C(C[N+](=O)[O-])c1c(N)n(C)c(=O)n(C)c1=O (stereo unspecified)	inconclusive [inhibitor, partial curve]	
CCc1ccc(C2C(C#N)=C(N)C(C#N)(C#N)C3=CCC(C(C)(C)C)CC32)cc1 (stereo unspecified)	active: 13.1 µM	
Cc1ccc(OCC(=O)Nc2ccc(S(=O)(=O)Nc3ccccn3)cc2)cc1C	inconclusive [inhibitor, partial curve, poor fit]	
